A collection of fitness landscapes (doi:10.1016/j.celrep.2020.107928)
In all, about 81,000 sequences were measured (“one-hybrid fitness for binding parS DNA”: median about -0.17, highest 2% from about 0.51 on). The list shows a part of the results.

B1: Caulobacter ParB omega fusion; a variant is named by its letters at X, in order, B8GW30 (parent)
chain: MESVVVGEPGMSEGRRGLGRGLSALLGEVDAAPAQAPGEQLGGSREAPIEILQRNPDQPRRTFREEDLEDLSNSIREKGVLQPILVRPSPDTAGEYQIVAGERAWRAAQRAGLKTVPIMVRELDDLAVLEIGIIENVQRADLNVLEEALSYKVLMEKFERTQENIAQTIGKSXSHVANXMRLLXLPDEVQSYLVSGELTAXHARAIAAAADPVALAKQIIEGGLSVRETEALARKAPNLSAGKSKGGRPPRVKDTDTQALESDLSSVLGLDVSIDHRGSTGTLTITYATLEQLDDLCNRLTRGI

Variants of: B1
Assay: one-hybrid fitness for binding parS DNA (scaled: cognate 1, non-cognate 0); higher = stronger binding
Details: with parS DNA site
Outline: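 In E. coli USO, a HIS3 reporter with its site placed 19 bp from the promoter was used to select Caulobacter ParB variants randomised at four specificity codons. Growth lasted 48 hours at 37°C on histidine-free M9 containing 0.1 mM IPTG and 5 mM 3-AT. Fitness was taken as the log change in variant-to-wild-type read ratio from Illumina sequencing of pre- and post-selection plasmids, rescaled between the non-cognate and cognate sites.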

Row | Variant | one-hybrid fitness for binding parS DNA
1 | KWDT | ≤ 0.2
2 | QCES | ≤ 0.2
3 | KRLN | ≤ 0.2
4 | HAWS | ≤ 0.2
5 | ERGK | ≤ 0.2
6 | QTNL | ≤ 0.2
7 | RMAQ | ≤ 0.2
8 | LPPN | ≤ 0.2
9 | TPHT | ≤ 0.2
10 | LIVC | ≤ 0.2
11 | HENI | ≤ 0.2
12 | PQKM | ≤ 0.2
13 | LFPF | ≤ 0.2
14 | VKWV | ≤ 0.2
15 | QCAH | ≤ 0.2
16 | RAHH | 0.26
17 | YTTG | ≤ 0.2
18 | QSGD | ≤ 0.2
19 | RCAI | ≤ 0.2
20 | THAI | ≤ 0.2
21 | FNVV | ≤ 0.2
22 | KRTK | ≤ 0.2
23 | FEAL | ≤ 0.2
24 | GISG | ≤ 0.2

Row | Variant | one-hybrid fitness for binding parS DNA
25 | EFNW | ≤ 0.2
26 | KHQR | ≤ 0.2
27 | MAKV | ≤ 0.2
28 | FMAV | ≤ 0.2
29 | QYIA | ≤ 0.2
30 | SPPM | ≤ 0.2
31 | RYSW | ≤ 0.2
32 | ETAV | ≤ 0.2
33 | KNWS | ≤ 0.2
34 | VCSL | ≤ 0.2
35 | PLES | ≤ 0.2
36 | VLAC | ≤ 0.2
37 | QSDN | ≤ 0.2
38 | YFAC | ≤ 0.2
39 | NWLA | ≤ 0.2
40 | MFRS | ≤ 0.2
41 | LWAI | ≤ 0.2
42 | CPNG | ≤ 0.2
43 | PAHV | ≤ 0.2
44 | AAEC | ≤ 0.2
45 | IKCV | ≤ 0.2
46 | RQPW | ≤ 0.2
47 | RRMV | ≤ 0.2
48 | AGCM | ≤ 0.2

Row | Variant | one-hybrid fitness for binding parS DNA
49 | KTTY | ≤ 0.2
50 | YFQT | ≤ 0.2
51 | HLEG | ≤ 0.2
52 | KERY | ≤ 0.2
53 | KIAD | ≤ 0.2
54 | RTSW | 0.241
55 | TVFG | ≤ 0.2
56 | CTTS | ≤ 0.2
57 | RELW | ≤ 0.2
58 | VTPE | ≤ 0.2
59 | MSLE | ≤ 0.2
60 | AVTS | ≤ 0.2
61 | LKCE | ≤ 0.2
62 | KIQR | ≤ 0.2
63 | RTTR | ≤ 0.2
64 | DIEI | ≤ 0.2
65 | KIAM | ≤ 0.2
66 | MSPY | ≤ 0.2
67 | TRAK | ≤ 0.2
68 | ISQT | ≤ 0.2
69 | KYKS | ≤ 0.2
70 | RGAE | ≤ 0.2
71 | CMRE | ≤ 0.2
72 | SIDL | ≤ 0.2

Row | Variant | one-hybrid fitness for binding parS DNA
73 | PEVN | ≤ 0.2
74 | MIPC | ≤ 0.2
75 | VCYR | ≤ 0.2
76 | CPTT | ≤ 0.2
77 | IQLC | ≤ 0.2
78 | RMQL | ≤ 0.2
79 | GDHV | ≤ 0.2
80 | IAFT | ≤ 0.2
81 | HTSH | ≤ 0.2
82 | VYSM | ≤ 0.2
83 | NIPM | ≤ 0.2
84 | HSFG | ≤ 0.2
85 | VMMR | ≤ 0.2
86 | TLNK | ≤ 0.2
87 | SCNG | ≤ 0.2
88 | SPET | ≤ 0.2
89 | VHVQ | 0.205
90 | RTAT | 0.918
91 | SCQN | ≤ 0.2
92 | TKGM | ≤ 0.2
93 | WAQI | ≤ 0.2
94 | TMAQ | ≤ 0.2
95 | TSPR | ≤ 0.2
96 | CHPC | ≤ 0.2

Row | Variant | one-hybrid fitness for binding parS DNA
97 | SPFD | ≤ 0.2
98 | GTAH | ≤ 0.2
99 | QYNM | ≤ 0.2
100 | HAHL | ≤ 0.2
101 | FRIG | ≤ 0.2
102 | DRWC | ≤ 0.2
103 | HSYN | ≤ 0.2
104 | LLDH | ≤ 0.2
105 | VPWM | ≤ 0.2
106 | TEMC | ≤ 0.2
107 | HDMS | ≤ 0.2
108 | KYMY | ≤ 0.2
109 | RADI | ≤ 0.2
110 | LQPG | ≤ 0.2
111 | VDEG | ≤ 0.2
112 | TSRY | ≤ 0.2
113 | CILV | ≤ 0.2
114 | SALQ | ≤ 0.2
115 | YLEN | ≤ 0.2
116 | QLNE | ≤ 0.2
117 | GSAG | ≤ 0.2
118 | IGRM | ≤ 0.2
119 | AGRE | ≤ 0.2
120 | VRVV | ≤ 0.2

Row | Variant | one-hybrid fitness for binding parS DNA
121 | GGPV | ≤ 0.2
122 | AMRW | ≤ 0.2
123 | QANP | ≤ 0.2
124 | LHEN | ≤ 0.2
125 | HKNT | ≤ 0.2
126 | NIST | ≤ 0.2
127 | PHVW | ≤ 0.2
128 | GCGG | ≤ 0.2
129 | RFHN | 0.456
130 | LRWR | ≤ 0.2
131 | MLLG | ≤ 0.2
132 | YAMT | ≤ 0.2
133 | CSWW | 0.204
134 | KTSC | ≤ 0.2
135 | CPKG | ≤ 0.2
136 | WSIQ | ≤ 0.2
137 | RFRM | 0.378
138 | LLEN | ≤ 0.2
139 | SFCV | ≤ 0.2
140 | QKAT | ≤ 0.2
141 | TDWT | ≤ 0.2
142 | QKMK | ≤ 0.2
143 | AEEL | ≤ 0.2
144 | QTLC | ≤ 0.2

Row | Variant | one-hybrid fitness for binding parS DNA
145 | RAGA | 0.595
146 | TACQ | ≤ 0.2
147 | AILY | ≤ 0.2
148 | MRMY | ≤ 0.2
149 | QVTT | ≤ 0.2
150 | PEVW | ≤ 0.2
151 | NAKF | ≤ 0.2
152 | VPKP | ≤ 0.2
153 | HPHG | ≤ 0.2
154 | CGSF | ≤ 0.2
155 | QCCN | ≤ 0.2
156 | YWIE | ≤ 0.2
157 | SRRF | ≤ 0.2
158 | GRME | ≤ 0.2
159 | HTCM | ≤ 0.2
160 | KTPN | ≤ 0.2
161 | EFLV | ≤ 0.2
162 | VWKR | ≤ 0.2
163 | AHSA | ≤ 0.2
164 | FPTY | ≤ 0.2
165 | CRNI | ≤ 0.2
166 | NNPY | ≤ 0.2
167 | KPPV | ≤ 0.2
168 | RINV | ≤ 0.2

Row | Variant | one-hybrid fitness for binding parS DNA
169 | YSLN | ≤ 0.2
170 | TDSH | ≤ 0.2
171 | RSPI | ≤ 0.2
172 | IIYG | ≤ 0.2
173 | LHKR | ≤ 0.2
174 | NPNS | ≤ 0.2
175 | GWGG | ≤ 0.2
176 | MRYG | ≤ 0.2
177 | IFTW | ≤ 0.2
178 | SPIW | ≤ 0.2
179 | RCSL | ≤ 0.2
180 | PQYR | ≤ 0.2
181 | QGIR | ≤ 0.2
182 | SPNY | ≤ 0.2
183 | QYQC | ≤ 0.2
184 | HYRG | ≤ 0.2
185 | RQIE | ≤ 0.2
186 | VWSS | ≤ 0.2
187 | DLLV | ≤ 0.2
188 | KYTN | ≤ 0.2
189 | IKLG | ≤ 0.2
190 | LIPL | ≤ 0.2
191 | RNTW | ≤ 0.2
192 | LQGV | ≤ 0.2

Row | Variant | one-hybrid fitness for binding parS DNA
193 | GNVG | ≤ 0.2
194 | HNGM | ≤ 0.2
195 | AEER | ≤ 0.2
196 | DTVT | ≤ 0.2
197 | RSDE | ≤ 0.2
198 | PLVI | ≤ 0.2
199 | CHKT | ≤ 0.2
200 | VPYI | ≤ 0.2
201 | KWER | ≤ 0.2
202 | MSMF | ≤ 0.2
203 | CFLM | ≤ 0.2
204 | SFIG | ≤ 0.2
205 | GTNC | ≤ 0.2
206 | CLAY | ≤ 0.2
207 | IVQG | ≤ 0.2
208 | VTMP | ≤ 0.2
209 | HFYC | ≤ 0.2
210 | YTGW | ≤ 0.2
211 | QYTK | ≤ 0.2
212 | SGHI | ≤ 0.2
213 | PKGE | ≤ 0.2
214 | ISIV | ≤ 0.2
215 | ESLV | ≤ 0.2
216 | AYQS | ≤ 0.2

Row | Variant | one-hybrid fitness for binding parS DNA
217 | SASF | ≤ 0.2
218 | NALL | ≤ 0.2
219 | TPDE | ≤ 0.2
220 | VHQG | ≤ 0.2
221 | KLHL | ≤ 0.2
222 | ASSV | ≤ 0.2
223 | YQSW | ≤ 0.2
224 | IYSC | ≤ 0.2
225 | RVCI | ≤ 0.2
226 | ARST | ≤ 0.2
227 | LGRH | ≤ 0.2
228 | LCNV | ≤ 0.2
229 | VFET | ≤ 0.2
230 | TYHE | ≤ 0.2
231 | HNNG | ≤ 0.2
232 | MSSE | ≤ 0.2
233 | MDFC | ≤ 0.2
234 | QHHT | ≤ 0.2
235 | HRTS | 0.425
236 | LLQD | ≤ 0.2
237 | QGIM | ≤ 0.2
238 | GWDK | ≤ 0.2
239 | KISV | ≤ 0.2
240 | YVSR | ≤ 0.2

Row | Variant | one-hybrid fitness for binding parS DNA
241 | RRLI | ≤ 0.2
242 | HPLG | ≤ 0.2
243 | RPSW | ≤ 0.2
244 | FKSY | ≤ 0.2
245 | GMMW | ≤ 0.2
246 | IAHT | ≤ 0.2
247 | AICS | ≤ 0.2
248 | RLCW | 0.288
249 | GNES | ≤ 0.2
250 | VDKV | ≤ 0.2
251 | KLEL | ≤ 0.2
252 | MIPV | ≤ 0.2
253 | VGRR | ≤ 0.2
254 | TPKK | ≤ 0.2
255 | GLLA | ≤ 0.2
256 | CGAD | ≤ 0.2
257 | VFCG | ≤ 0.2
258 | QDLS | ≤ 0.2
259 | GEQT | ≤ 0.2
260 | QAVF | ≤ 0.2
261 | HPAT | ≤ 0.2
262 | LQKR | ≤ 0.2
263 | RAKF | 0.385
264 | DTNT | ≤ 0.2

Row | Variant | one-hybrid fitness for binding parS DNA
265 | ENKQ | ≤ 0.2
266 | NKQS | ≤ 0.2
267 | APNS | ≤ 0.2
268 | GCPD | ≤ 0.2
269 | IVPF | ≤ 0.2
270 | PPED | ≤ 0.2
271 | FISY | ≤ 0.2
272 | YTSV | ≤ 0.2
273 | QRHE | ≤ 0.2
274 | RKFF | ≤ 0.2
275 | NDHR | ≤ 0.2
276 | SYKG | ≤ 0.2
277 | PPHN | ≤ 0.2
278 | MQVV | ≤ 0.2
279 | SHWD | ≤ 0.2
280 | LMYG | ≤ 0.2
281 | YMKG | ≤ 0.2
282 | RSEF | ≤ 0.2
283 | TPAP | ≤ 0.2
284 | YNKC | ≤ 0.2
285 | QYWY | ≤ 0.2
286 | PGPF | ≤ 0.2
287 | MGFG | ≤ 0.2
288 | AHCC | ≤ 0.2

Row | Variant | one-hybrid fitness for binding parS DNA
289 | AAFG | ≤ 0.2
290 | LRMM | ≤ 0.2
291 | YLNR | ≤ 0.2
292 | YRAF | ≤ 0.2
293 | LSMC | ≤ 0.2
294 | HIFW | ≤ 0.2
295 | STML | ≤ 0.2
296 | VAFI | ≤ 0.2
297 | RHAE | ≤ 0.2
298 | RGAR | ≤ 0.2
299 | RVMV | ≤ 0.2
300 | QMAP | ≤ 0.2
301 | SQSY | ≤ 0.2
302 | YHVC | ≤ 0.2
303 | RFLV | ≤ 0.2
304 | RAFM | 0.331
305 | YGGS | ≤ 0.2
306 | CPEV | ≤ 0.2
